# Test results published in the supplement of paper PMC3334620.
# Whole data set: some 33,000 sequences, median “E-score (-0.5 to 0.5)” near -0.012, cut for the highest 2% near 0.29. The list shows a part of the results.
# Biological target: T1, Ybr033w (UniProt P38073)
# T1 sequence: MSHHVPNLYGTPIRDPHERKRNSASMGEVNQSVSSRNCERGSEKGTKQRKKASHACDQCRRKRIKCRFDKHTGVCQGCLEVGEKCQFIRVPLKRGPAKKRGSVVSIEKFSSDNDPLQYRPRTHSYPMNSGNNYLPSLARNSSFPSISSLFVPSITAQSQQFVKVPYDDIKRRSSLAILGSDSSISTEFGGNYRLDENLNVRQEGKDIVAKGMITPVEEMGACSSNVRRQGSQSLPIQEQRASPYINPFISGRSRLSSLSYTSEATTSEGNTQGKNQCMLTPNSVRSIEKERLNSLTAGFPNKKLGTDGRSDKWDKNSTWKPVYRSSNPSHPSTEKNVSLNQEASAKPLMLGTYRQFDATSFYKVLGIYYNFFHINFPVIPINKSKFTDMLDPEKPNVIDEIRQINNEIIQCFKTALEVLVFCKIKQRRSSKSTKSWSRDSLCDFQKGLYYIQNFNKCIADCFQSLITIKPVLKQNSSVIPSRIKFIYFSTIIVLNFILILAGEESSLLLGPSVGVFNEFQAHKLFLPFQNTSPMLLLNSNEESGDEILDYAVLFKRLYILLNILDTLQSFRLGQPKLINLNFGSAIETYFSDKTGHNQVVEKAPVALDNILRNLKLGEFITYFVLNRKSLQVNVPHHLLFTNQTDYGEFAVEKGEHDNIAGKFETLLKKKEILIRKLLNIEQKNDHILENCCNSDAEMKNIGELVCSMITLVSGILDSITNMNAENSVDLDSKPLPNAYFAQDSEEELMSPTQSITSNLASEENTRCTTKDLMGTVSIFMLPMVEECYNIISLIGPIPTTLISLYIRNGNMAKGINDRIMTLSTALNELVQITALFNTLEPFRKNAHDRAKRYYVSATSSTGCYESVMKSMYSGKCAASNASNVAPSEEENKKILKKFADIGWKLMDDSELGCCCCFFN
# Test: PBM E-score (8-mer binding enrichment) (E-score (-0.5 to 0.5)); higher = stronger / more preferred TF binding; most listed sequences are background and not binding sites
# Conditions: protein concentration: 200 nM; construct: GST-full length
# Procedure, shortened: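 Full-length yeast transcription factors or their DNA-binding domains, GST-tagged and expressed with PURExpress, were applied at about 100-200 nM to universal all-10-mer Agilent arrays. These arrays had been made double-stranded by primer extension on fresh or once-stripped slides. Detection used fluorescent anti-GST, normalisation used masliner, and E-scores for ungapped eight-base words pooled with reverse complements came from the Universal PBM Analysis Suite.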
row,Sequence,PBM E-score
1,CAGCTTTA,0.0931
2,CGGGTGTC,-0.164
3,ACTAGCCA,0.0538
4,AAGACTCC,-0.106
5,AAACTTGG,-0.0434
6,ATAGCCTC,-0.163
7,TGTCAACA,0.0334
8,GGGTTTCA,0.0387
9,GCCGGATA,0.156
10,CGCGCTAC,0.0437
11,GGTCCCGA,-0.145
12,CAGACAAC,0.0268
13,ATGTAACC,-0.169
14,CCTACTGA,0.00716
15,CTCTTTCC,-0.171
16,ACACGGAG,-0.0714
17,ACTCGGTG,-0.0597
18,GCACCGTA,-0.103
19,AGTTCCGG,0.0928
20,AACTACAA,0.257
21,GCCTTACC,-0.347
22,TGAGTCCA,-0.0716
23,GAAGCCTC,-0.254
24,AATGATGT,0.17
25,GGTGCGGA,-0.0249

row,Sequence,PBM E-score
1,AGACTCAT,-0.00715
2,TAGACATA,0.144
3,ACTCAGAG,-0.0221
4,ATTCGGAA,0.269
5,ACGAACCT,0.0105
6,CGCACAAA,0.165
7,ATCCAGCG,0.0787
8,AGGGTACT,-0.117
9,CTAGTATA,0.0541
10,CAAGTGGC,0.0512
11,TCTCAAAA,0.143
12,GCCAAGAA,-0.0504
13,CGCGCTTC,-0.0688
14,CGGCTCCC,-0.269
15,ATTCGGGG,0.0149
16,ATAAGCTG,-0.0152
17,CACCTGAC,-0.108
18,ATCGCGCC,0.056
19,GGAGTAAA,0.246
20,AACAGCTT,-0.166
21,GGTTAGGA,-0.155
22,CGGAGCGA,0.146
23,AACCATAT,0.211
24,TATCTCCA,0.159
25,CTATACAC,-0.0765

row,Sequence,PBM E-score
1,CCTGCCAA,-0.26
2,CTACTTGC,0.0243
3,AGAGGACG,0.114
4,ATGCGTTC,0.165
5,AACTAGCT,-0.0201
6,GAACGGCC,-0.0853
7,ATCGGAGA,0.0326
8,AGTGCTAG,0.0412
9,ACGCTTGC,0.00263
10,AAAGACGC,-0.0864
11,ACCCCGAA,0.0331
12,AAGTCCTA,0.0341
13,AAACAGGG,-0.0591
14,ACTACCCC,-0.227
15,ACGATACA,0.0132
16,GTGAACAA,0.124
17,AATCTGTC,-0.124
18,CAGCGGCG,-0.0125
19,CCTATCAA,0.0668
20,CGCAGGAA,0.0111
21,TACTTAAA,0.152
22,TGTAAAAA,0.114
23,AACGCTGA,-0.228
24,CAGGATGA,-0.0551
25,AGTGCACG,-0.0824

row,Sequence,PBM E-score
1,CGATTGCC,-0.081
2,CGCCGCAA,0.0684
3,CGCTCCTA,-0.101
4,ACTTGACT,-0.0757
5,ATCGCGTC,-0.0472
6,AGGTTTTA,-0.042
7,CAATATGC,0.00467
8,CCTAGAAA,0.11
9,AGCAAAAG,-0.0569
10,CTCGATAC,0.215
11,AAGTGTAT,-0.0335
12,AACTCTAT,-0.00078
13,AAATTCGT,0.258
14,CTAGTCTA,-0.166
15,TCCCTGAA,-0.0456
16,AATCTTTA,0.197
17,ACTACTAA,0.173
18,CCCGGTAA,-0.121
19,ACCAGTTG,0.0516
20,AACCAGGA,0.151
21,CCTAGACC,-0.0857
22,CTACCATA,0.115
23,GTGACCAC,-0.2
24,TAGCAAAA,0.233
25,CGTGTAAA,-0.0415

row,Sequence,PBM E-score
1,AAAAGCTC,0.0811
2,CGCCACGC,-0.403
3,CCTTGGTC,-0.159
4,CTATAGAG,-0.045
5,ACACGCAT,0.0109
6,CACCAAAC,0.0403
7,ATGCGCTG,-0.0829
8,ATTACTTG,0.143
9,CCCCCCAA,-0.246
10,GAGGAACA,0.171
11,CCCGTGGA,-0.113
12,GCGCCTAC,-0.105
13,CTGTGACC,-0.194
14,CCGCCGTA,-0.0482
15,GGGTGGGA,-0.0877
16,CTGGATCC,0.0768
17,AGAAGGCG,-0.177
18,GAACTCTC,-0.0358
19,AATACGGT,-0.0205
20,GATCCTTA,0.122
21,CAAGATTC,0.157
22,CTGCTTGA,-0.0898
23,ACGCTTGG,-0.217
24,ATATATGC,0.0357
25,AGATAGAC,0.00447

row,Sequence,PBM E-score
1,GAATCAGA,0.187
2,AGCTAACT,0.0358
3,ACAGTATC,0.034
4,GCTATGGA,-0.06
5,AGGGAACT,0.0105
6,GACGGACC,-0.0665
7,ATGAATAA,0.15
8,CGCGCATC,-0.0296
9,ACGCAGAT,-0.0738
10,CTCCTTCC,-0.244
11,ATCTGGGA,-0.212
12,CAAGGGCG,-0.226
13,AATGATTG,0.092
14,AGGTTCGA,0.073
15,ACAAAGCC,0.0507
16,TAAACACA,0.141
17,ATGTCAAC,0.134
18,AGGATCCG,-0.284
19,AGTCGGAA,0.194
20,TCCAGCAA,0.125
21,GGGTGACA,-0.141
22,AGCAGAAT,0.0992
23,CGGTTTAG,-0.141
24,AATGGTGG,0.00708
25,ACTGTCGG,-0.278

row,Sequence,PBM E-score
1,AATGAAAA,0.134
2,ATCACGTC,-0.0343
3,AGACTGTA,-0.175
4,AGGTTATC,0.0654
5,CCGTCCAC,0.0972
6,TCCTGAAA,0.0753
7,GTGGCGCA,-0.102
8,CTACGATA,0.115
9,CCTATTCC,-0.0179
10,GCTCTAAA,-0.0694
11,ATAAAAGA,0.132
12,GCGTCGGA,0.0107
13,AGATCGGG,-0.245
14,AATGGGCA,-0.0312
15,CAACTATC,0.0163
16,GCCACAGA,-0.22
17,CGAAACCG,0.0838
18,AAAAATGA,0.233
19,CAACAAGG,0.121
20,CTGTGCAC,-0.179
21,GCCGTTAC,-0.138
22,ATAAGGAG,-0.0849
23,CTCCTGTC,-0.0458
24,GGTGGCAC,-0.246
25,CTCCATCA,0.158

row,Sequence,PBM E-score
1,CCACCCAA,-0.0606
2,GACGATGC,-0.147
3,AATAACGG,0.211
4,TCGCGAGA,-0.055
5,AGCTACGG,-0.217
6,AGTCAAGC,-0.128
7,ACGCGCCA,-0.0813
8,CGATGGTA,-0.0391
9,ATTTTTAA,0.279
10,CAAAGGAC,-0.202
11,GCAACACC,-0.139
12,GGCGATAC,-0.177
13,TCGCAAAA,0.211
14,TCGCTCAA,0.177
15,CTGGGATA,0.0448
16,AATGATGA,0.153
17,TCGTTTAA,0.145
18,AGAATTTA,0.243
19,TCGCGACA,-0.0652
20,AAGCATGA,0.0674
21,CTTACCGA,0.0655
22,CCAGGGGA,-0.105
23,ATTGAGGA,0.111
24,AAGGGTGG,-0.257
25,AGCCACCA,0.0237

row,Sequence,PBM E-score
1,ATATATAG,0.332
2,TCTAATAA,0.291
3,ACGTATGC,-0.0461
4,AGCAACGA,-0.0221
5,ACCCTGAA,-0.0588
6,GTTCGCTA,0.0323
7,ATTCATGC,0.0624
8,GAGCAGGA,-0.042
9,GGGGCACA,-0.252
10,GGCAAGAA,0.0465
11,GATACGCA,0.0396
12,GTTCTTTA,0.167
13,ACACAGTG,-0.00934
14,TAAGAACA,0.222
15,GATCAACC,-0.059
16,AAAGCCTG,-0.0529
17,GCGTTGCA,0.00846
18,TAGGCCTA,0.00714
19,GCCTCGAA,0.108
